Results from the antibiotic and cytotoxicity screens of Wong et al. (2023).
Some of the results follow.

How the values were obtained:
HSkMC = human skeletal muscle cells; experiment: cytotoxicity call (relative viability < 0.9); conditions: 10 µM
HepG2 = experiment: cytotoxicity call (relative viability < 0.9); conditions: 10 µM
S. aureus RN4220 = experiment: growth inhibition call (relative growth <= 0.2); conditions: 50 µM

C[C@@H]1CN([C@H](C)CO)C(=O)c2cc(-c3cccc(C(=O)N(C)C)c3)cnc2O[C@H]1CN(C)S(=O)(=O)c1cccc(F)c1
cytotoxicity call (HSkMC): inactive | cytotoxicity call (HepG2): inactive | growth inhibition call (S. aureus RN4220): inactive

C[C@H]1CCCCO[C@@H](CN(C)Cc2ccccc2)[C@@H](C)CN([C@@H](C)CO)C(=O)c2cc(NC(=O)NC3CCCCC3)ccc2O1
cytotoxicity call (HSkMC): inactive | cytotoxicity call (HepG2): inactive | growth inhibition call (S. aureus RN4220): inactive

COc1ccc(NC(=O)N(C)C[C@@H]2OCCCC[C@@H](C)Oc3ccc(NC(=O)c4ccccc4)cc3C(=O)N([C@H](C)CO)C[C@H]2C)cc1
cytotoxicity call (HSkMC): inactive | cytotoxicity call (HepG2): active | growth inhibition call (S. aureus RN4220): inactive

C[C@H]1CN([C@@H](C)CO)C(=O)c2cccc(NC(=O)C3CCOCC3)c2O[C@H]1CN(C)S(=O)(=O)c1ccccc1
cytotoxicity call (HSkMC): inactive | cytotoxicity call (HepG2): inactive | growth inhibition call (S. aureus RN4220): inactive

CN(C)CCN1CCO[C@H]2CN(C(=O)N(C)C)C[C@@H]21
cytotoxicity call (HSkMC): inactive | cytotoxicity call (HepG2): inactive | growth inhibition call (S. aureus RN4220): inactive

C[C@@H]1CCCCO[C@H](CN(C)Cc2ccc(Cl)c(Cl)c2)[C@H](C)CN([C@@H](C)CO)C(=O)c2cc(NS(=O)(=O)c3ccc(F)cc3)ccc2O1
cytotoxicity call (HSkMC): active | cytotoxicity call (HepG2): active | growth inhibition call (S. aureus RN4220): inactive

C[C@@H]1CN([C@H](C)CO)C(=O)c2cc(NC(=O)CCN3CCOCC3)ccc2O[C@@H]1CN(C)S(=O)(=O)c1ccc(Cl)cc1
cytotoxicity call (HSkMC): inactive | cytotoxicity call (HepG2): inactive | growth inhibition call (S. aureus RN4220): inactive

CCCN(C)C[C@H]1OCCCC[C@H](C)Oc2ccc(NC(=O)Nc3ccc(OC)cc3)cc2C(=O)N([C@H](C)CO)C[C@@H]1C
cytotoxicity call (HSkMC): inactive | cytotoxicity call (HepG2): inactive | growth inhibition call (S. aureus RN4220): inactive

Cc1ccc(S(=O)(=O)N(C)C[C@H]2Oc3ccc(NC(=O)NC(C)C)cc3CC(=O)N([C@H](C)CO)C[C@@H]2C)cc1
cytotoxicity call (HSkMC): inactive | cytotoxicity call (HepG2): inactive | growth inhibition call (S. aureus RN4220): inactive

COc1cccc(S(=O)(=O)N(C)C[C@H]2Oc3ncc(C#CCN(C)C)cc3C(=O)N([C@@H](C)CO)C[C@@H]2C)c1
cytotoxicity call (HSkMC): inactive | cytotoxicity call (HepG2): inactive | growth inhibition call (S. aureus RN4220): inactive

C[C@H](CO)N1C[C@H](C)[C@@H](CN(C)Cc2ccc(C(=O)O)cc2)OCCCC[C@H](C)Oc2ccc(NC(=O)Nc3ccc(F)cc3)cc2C1=O
cytotoxicity call (HSkMC): inactive | cytotoxicity call (HepG2): inactive | growth inhibition call (S. aureus RN4220): inactive

COc1ccc(S(=O)(=O)N(C)C[C@@H]2OCCCC[C@@H](C)Oc3ccc(NC(=O)NC4CCCCC4)cc3C(=O)N([C@H](C)CO)C[C@@H]2C)cc1
cytotoxicity call (HSkMC): inactive | cytotoxicity call (HepG2): inactive | growth inhibition call (S. aureus RN4220): inactive

C[C@H](CO)N1C[C@H](C)[C@H](CN(C)Cc2cccc(F)c2)OCc2ccccc2-c2c(n(C)c3ccccc23)C1=O
cytotoxicity call (HSkMC): inactive | cytotoxicity call (HepG2): active | growth inhibition call (S. aureus RN4220): inactive

O=C(C[C@H]1C[C@H]2c3cc(NC(=O)Cc4ccncc4)ccc3O[C@H]2[C@H](CO)O1)NCc1cccc(F)c1
cytotoxicity call (HSkMC): inactive | cytotoxicity call (HepG2): inactive | growth inhibition call (S. aureus RN4220): inactive

C[C@@H]1CCCCO[C@@H](CN(C)C(=O)CCCN(C)C)[C@H](C)CN([C@H](C)CO)C(=O)c2cc(NC(=O)Nc3ccc(C(F)(F)F)cc3)ccc2O1
cytotoxicity call (HSkMC): inactive | cytotoxicity call (HepG2): inactive | growth inhibition call (S. aureus RN4220): inactive

Cc1ccc(S(=O)(=O)Nc2ccc3c(c2)CC(=O)N([C@@H](C)CO)C[C@H](C)[C@H](CN(C)Cc2ccc(Cl)c(Cl)c2)O3)cc1
cytotoxicity call (HSkMC): active | cytotoxicity call (HepG2): active | growth inhibition call (S. aureus RN4220): inactive

COc1ccc(CN(C)C[C@@H]2Oc3c(NC(=O)c4ccc(-c5nccs5)cc4)cccc3C(=O)N([C@H](C)CO)C[C@@H]2C)cc1
cytotoxicity call (HSkMC): inactive | cytotoxicity call (HepG2): inactive | growth inhibition call (S. aureus RN4220): inactive

Cc1noc(C)c1NC(=O)Nc1ccc2c(c1)CC(=O)N([C@H](C)CO)C[C@@H](C)[C@H](CN(C)Cc1ccc(Oc3ccccc3)cc1)O2
cytotoxicity call (HSkMC): inactive | cytotoxicity call (HepG2): inactive | growth inhibition call (S. aureus RN4220): inactive

COc1ccc(S(=O)(=O)Nc2ccc3c(c2)C(=O)N([C@@H](C)CO)C[C@H](C)[C@H](CN(C)C(=O)Nc2ccccc2)OCCCC[C@@H](C)O3)cc1
cytotoxicity call (HSkMC): inactive | cytotoxicity call (HepG2): inactive | growth inhibition call (S. aureus RN4220): inactive

Cc1noc(C)c1S(=O)(=O)Nc1ccc2c(c1)CC(=O)N([C@H](C)CO)C[C@H](C)[C@@H](CN(C)S(=O)(=O)c1cccs1)O2
cytotoxicity call (HSkMC): inactive | cytotoxicity call (HepG2): inactive | growth inhibition call (S. aureus RN4220): inactive

COc1ccc(CN(C)C[C@H]2OCCCC[C@@H](C)Oc3ccc(NS(=O)(=O)c4ccccc4)cc3C(=O)N([C@H](C)CO)C[C@@H]2C)cc1
cytotoxicity call (HSkMC): inactive | cytotoxicity call (HepG2): inactive | growth inhibition call (S. aureus RN4220): inactive

CN(C)CC(=O)N[C@@H]1CC[C@H](CCn2cc(CN(C)C)nn2)O[C@@H]1CO
cytotoxicity call (HSkMC): inactive | cytotoxicity call (HepG2): inactive | growth inhibition call (S. aureus RN4220): inactive

C[C@@H]1CN([C@@H](C)CO)C(=O)c2cc(NS(C)(=O)=O)ccc2O[C@H]1CN(C)S(=O)(=O)c1ccc(Cl)cc1
cytotoxicity call (HSkMC): inactive | cytotoxicity call (HepG2): inactive | growth inhibition call (S. aureus RN4220): inactive
